# Measured values reported in the RNAGym collection of RNA variant scans (doi:10.7554/elife.90254).
# The source gives no read counts; variants with many changes may rest on few reads.
# B1: OR4K15 (parent)
# chain: GUUAACGGUCAUAGGCCAUGGAAACUAGGAGCACCAUUUCGCUGCCAGUGAAGAAAUGAACAAAGAAAAUCUGGGCCAGGCAGGCAUCAAAAGAAAUAGUCUUGCGCUCAACCAGAAAGUCUGUAAUCAUUUUAAGGGUA
# Variants of: B1
# Assay: self-cleavage, relative activity (ratio to wild type); higher = more cleavage; in vitro, sequencing; the parent is a self-cleaving ribozyme
row,Variant,self-cleavage
1,GUUAACGGUCAUAGGCCAGGGAAACUAGGAGCACCAUUUCGCUGCCAGUGAAGAAAUGAACAAAGAAAAUCUGGGCCAGGCAGGCAUCAAAAGAAAUAGUCUUGCGCUCAACCAGAAGGUCUGAAAUCAUUUUAAGGGUA [U19G A118G U124A],0.89
2,GUUAACGGUCAUAGGCCAGGGAAACUAGGAGCACCAUCUCGCUGCCAGUGAAGAAAUGAACAAAGAAAAUCUGGGCCAGGCAGGCAUCAAAAGAAAUAGUCUUGCGCUCAACCAGAAAGCCUGUAAUCAUUUUAAGGGUA [U19G U38C U120C],0.48
3,GUUAACGGUCAUAGGCCAGGGAAACUAGGAGCACCAUUUCGCUGCCAGCGAAGAAGUGAACAAAGAAAAUCUGGGCCAGGCAGGCAUCGAAAGAAAUAGUCUUGCGCUCAACCAGAAAGUCCGUAAUCUUUUUAAGGGUA [U19G U49C A56G A89G U122C A129U],1.28
4,GUUAACGGUCAUAGGCCAUAGAGACUAGGAGCACCAUUUCGCUGCCAGUGAAGAAAUGAACAAAGAAAAUCUGGGCCAUGCAGGCACCAAAAGAUAUAGUCUUGCGCUCAACCAGAAAGUCUGUAAUCAUUUUAAGGGUA [G20A A23G G79U U87C A95U],0.13
5,GUUAACGGUCAUAGGCCAUAGAAACUGGGAGCACCAUUUCGCUGCCAGUGAAGAAAUGAGCAAAGAAAAUCUGGGCCAGGCAGGCAUCAAAAGAAGUAGUCUUGCGCUCAACCAGAAAGUCUGUAAUCAUUUUAAGGGUA [G20A A27G A60G A96G],0.2
6,GUUAACGGUCAUAGGCCAUAGAAACUAGGGGCACCACUUCGCUGCCAGUGAAGAAAUGAACAAAGAAAAUCUGGGCCAGGCAGGCAUCAAAAGAAAUAGUCUUGCGCUCAACCAGAAAGUCUGUAAUCAUUUUAAGGGUA [G20A A30G U37C],1.22
7,GUUAACGGUCAUAGGCCAUAGAAACUAGGAGCGCCAUUUCGCUGCCAGUGAAGAGAUGAACAAAGAAAAUCUGGGCCAGGCAGGCAUCAAAAGAAAUAGUCUUGCGCUCAACCAGAAAGUCUGUAAUCAUUUUAAGGGUA [G20A A33G A55G],0.72
8,GUUAACGGUCAUAGGCCAUAGAAACUAGGAGCACCGUUUCGCUGCCAGUGAAGAAAUGAACAAAGAAAAUCUGGGCCAGGCAGGCAUCAAAAGAAAUAGUCUUGCGCUCAACCAGAAUGUCUGUAAUCAUUUUAAGGGUA [G20A A36G A118U],1.15
9,GUUAACGGUCAUAGGCCAUAGAAACUAGGAGCACCAUUUCGCUGCCAGUGAAGGAAUGAACAAAGAAAAUCUGGGCCAGGCAGGCAUCAAAAGAAAUAGUCUUGCACUCAACCAGAAAGUCUGUAAUUAUUUUAAGGGUA [G20A A54G G106A C128U],0.02
10,GUUAACGGUCAUAGGCCAUAGAAACUAGGAGCACCAUUUCGCUGCCAGUGAAGGAAUGAACAAAGAAAAUCUGGGCCAGGCAGGCAUCAAAAGAAAUAGUCUUGCGCUCAACCAGAAAGUCUGUAAUCAUUCUAAGGGUA [G20A A54G U132C],2.49
11,GUUAACGGUCAUAGGCCAUAGAAACUAGGAGCACCAUUUCGCUGCCAGUGAAGAAGUGAACAAAGAAAAUCUGGGCCAGGCAGGCAUCAAGAGAAAUAGUCUUGCGCUCAACCAGAAAGUCUGUAGCCAUUUUAGGGGUA [G20A A56G A91G A126G U127C A135G],0.44
12,GUUAACGGUCAUAGGCCAUAGAAACUAGGAGCACCAUUUCGCUGCCAGUGAAGAAAUGAGCAAAGAAAAUCUGGGCCAGGCAGGCAUCGAAAGAAAUAGUCUUGCGCUCAACCAGAGAGUCUGUAAUCAUUUUAAGGGUA [G20A A60G A89G A117G],1.94
13,GUUAACGGUCAUAGGCCAUAGAAACUAGGAGCACCAUUUCGCUGCCAGUGAAGAAAUGAACAAAGAAAAUCUGGGCCAGGCAGGCGUCAAAAGAAAUAGUCUUGCGCUCAACCAGAAAGUCUGUAAUCAUUUCAAGGGUA [G20A A86G U133C],1.31
14,GUUAACGGUCAUAGGCCAUAGAAACUAGGAGCACCAUUUCGCUGCCAGUGAAGAAAUGAACAAAGAAAAUCUGGGCCAGGCAGGCAUCAAGAGAAAUAGUCUUGCGCUCAACCAGAAAGUCUGUAAUCUUUUUAAGGGUA [G20A A91G A129U],0.75
15,GUUAACGGUCAUAGGCCAUAGAAACUAGGAGCACCAUUUCGCUGCCAGUGAAGAAAUGAACAAAGAAAAUCUGGGCCAGGCAGGCAUCAAAAGAGAUAGUCUUGCGCUCAGCCAGAAAGUCUGUAAUCAUUUCAAGGGUA [G20A A95G A111G U133C],0.06
16,GUUAACGGUCAUAGGCCAUAGAAACUAGGAGCACCAUUUCGCUGCCAGUGAAGAAAUGAACAAAGAAAAUCUGGGCCAGGCAGGCAUCAAAAGAAAUAGUCUUGCGCUCAACCAGUAAGUCUGUGAUCAUUUUAAGGGUA [G20A A116U A125G],0.03
17,GUUAACGGUCAUAGGCCAUAGAAACUAGGACCACCAUUUCGCUGCCAGUGAAGGAAUGAACAAAGAAAAUCUGGGCCAGGCAGGCAUCAGUAGUAAUAGUCUUGCGCUCAACCAGAAAGUCUGUAAUCAUUUUAAGGGUA [G20A G31C A54G A90G A91U A94U],0.67
18,GUUAACGGUCAUAGGCCAUAGAAACUAGGAGCACCAUUUCGCUGCCAGUGAAGAAAUGAACAAAGAAAAUCUGGCCCAGGCAGGCAUCAAAAGAAGUAGUCUUGCGCUCAACCAGAAAGUCUGCAACCAUUUUAAGGGUA [G20A G75C A96G U124C U127C],0.02
19,GUUAACGGUCAUAGGCCAUAGAAACUAGGAGCACCAUUUCGCUGCCAGUGAAGAAAUGAACAAAGAAAAUCUGGGCCAGGCAGGCAUCAAAAGAAAUAAUCUUGCGCUCAACCAGAAAGCCUGUAAUCAUCUUAAGGGUA [G20A G99A U120C U131C],0.08
20,GUUAACGGUCAUAGGCCAUAGAAACUAGGAGCACCAUUUCGCUGCCAGUGAAGAAAUGAACAAAGAAAAUCUGGGCCAGGCAGGCAUCAAAAGAAAUAGUCUUGCGCUCAACCAUAAGGUCUGUAAUCAUUUUAAGGGUA [G20A G115U A118G],0.02
21,GUUAACGGUCAUAGGCCAUAGAAACUAGGAGCACCACUUCGCUGCCAGUGAAGAAAUGAACAAAGAAAAUCUGGGCCAGGCAGGCAUCAAAAGAAAUAGUCUUGCGCUCAACCAGAAAGUCUGUGAUCAUCCUAAGGGUA [G20A U37C A125G U131C U132C],0.18

row,Variant,self-cleavage
1,GUUAACGGUCAUAGGCCAUAGAAACUAGGAGCACCACUCCGCUGCCAGUGAAGAAAUGUACAAAGAAAAUCUGGGCCAGGCAGGCAUCAAAAAAAAUAGUCUUGCGCUCAACCAGAAAGUCUGCAAUCAUUUUAAGGGUA [G20A U37C U39C A59U G93A U124C],0.7
2,GUUAACGGUCAUAGGCCAUAGAAACUAGGAGCACCAUUGCGCUGCCAGUGAAGAAAUGAACAAAGAAAAUCUGGGCCAGGCUGGCAUCAAAAGAAAUAGUCUUGCGCUCAACCAGAAAGUCUGUAAUCAUAUUAAGGGUA [G20A U39G A82U U131A],0.12
3,GUUAACGGUCAUAGGCCAUAGAAACUAGGAGCACCAUUUCGCAGCCAGUGAAGAAAUGAACAAAGAAAAUCUGGGCCAGGCAGGCAUCAAAAGAAAUAGUCUUGCGCUCAACCAGAAAGUCUGUAAUCAAUUUAAGGGUA [G20A U43A U130A],0.95
4,GUUAACGGUCAUAGGCCAUAGAAACUAGGAGCACCAUUUCGCUGCCAGGGAAGGAAUGAACAAGGAAAAUCUGGGCCAGGCAGGCAUCAGAAGAAAUAGUCUUGCGCUCAACCAGAAAGUCUGUAAUCAUUUUAAGGGUA [G20A U49G A54G A64G A90G],1.07
5,GUUAACGGUCAUAGGCCAUAGAAACUAGGAGCACCAUUUCGCUGCCAGUGAAGAAAUGAACAAAGAAAAUCUGGGCCAGGCAGGCAUCAAAAGAAAAAGUCUUGCGCUCAACCAGAAUGUCUGUAAUCUCUUUAAGGGUA [G20A U97A A118U A129U U130C],0.37
6,GUUAACGGUCAUAGGCCAUUGAAACUAGGAGCACCAUUUCGCUGCCGGUGAAGGAAUGAACAAAGAAAAUCUGGGCCAGGCAGGCAUCAAAGGAAAUAGUCUUGCGCUCAACCAGAAAGUCUGUAAUCAUUUUAAGGGUA [G20U A47G A54G A92G],1.3
7,GUUAACGGUCAUAGGCCAUUGAAACUAGGAGCACCAUUUCGCUGCCAGUGAAGAACUGAACAAAGAAAAUCUGGGCCAGGCAGGCAUCAAAAGAAGUAGUCUUGCGCUCAACCAGGAAGUCUGUAAUCAUGUUAAGGGUA [G20U A56C A96G A116G U131G],0.23
8,GUUAACGGUCAUAGGCCAUUGAAACUAGGAGCACCAUUUCGCUGCCAGUGAAGAAAUGAACAAAGAAAAUCUGGGCCAGGCAGGCAUCAGAAGAAAUGGUCUUGCGCUCAACCAGAAAGUCUGUAAUCAUUUUAAGGGUA [G20U A90G A98G],0.16
9,GUUAACGGUCAUAGGCCAUUGAAACUAGGAGCACCAUUUCGCUGCCAGUGAAGAAAUGAACAAAGAAAAUCUGGGCCAGGCAGGCAUCAGAAGAAAUAGUCUUGCGCUCAACCAGAAAGUCUGUAACCAUUAUAAGCGUA [G20U A90G U127C U132A G137C],0.45
10,GUUAACGGUCAUAGGCCAUUGAAACUAGGAGCACCAUUUCGCUGCCAGUGAAGAAAUGAACAAAGAAAAUCUGGGCCAGGCAGGCAUCAAAAGAAAUAGUCUUGCGCUCAACCAGGGAGUCUGUAAUCAUUAUAAGGGUA [G20U A116G A117G U132A],0.35
11,GUUAACGGUCAUAGGCCAUUGAAACUAGGAGCACCAUUUCGCCGCCAGUGAAGAAAUGAACAAAGAAAAUCUGGGCCAGCCAGGCAUCAAAAGAAAUAGUCUUGCGCUCAACCAGAAAGUCUGUAAUCAUUUUAAGGGUA [G20U U43C G80C],0.07
12,GUUAACGGUCAUAGGCCAUGAGAACUAGGAGCACCAUUUCGCUGCCAGUGAAGAAAUGAACAAAGAAAAUCUGGGCCAGGCAGGCAUCAAAAGAAGUAGUCUUGCGCUCAACCAGAAAGUCUGUAAUCAUUUUAAGGGUA [G21A A22G A96G],2.41
13,GUUAACGGUCAUAGGCCAUGAGAACUAGGAGCACCAUUUCGCCGCCAGUGAAGAAAUGAACAAAGAAAAUCUGGGCCAGGCAGGCAUCAAAAGAAAUAGUCUUGCGCUCAACCAUAAAGUCUGUAAUCAUUUUAAGGGUA [G21A A22G U43C G115U],0.24
14,GUUAACGGUCAUAGGCCAUGAAGACUAGGAGCACCAUUUCGCUGCCAGUGAGGAAAUGAACAAAGAAAAUCUGGGCCAGGCAGGCAUCAAAAGAAAUAGUCUUGCGCUCAACCAGAAAGUCUGUAAUCAUUUUAAGGGUA [G21A A23G A52G],0.62
15,GUUAACGGUCAUAGGCCAUGAAAGCUAGGAGCACCAUUUCGCUGCCAGUGGAGAAAUGAACAAAGAAAAUCUGGGCCAGGCAGGCAUCAAAAGAAAUAGUCUUGCGCUCAACCAGAAAGUCUGUAAUCAUUUUAAGGGUA [G21A A24G A51G],0.95
16,GUUAACGGUCAUAGGCCAUGAAAGCUAGGAGCACCAUUUCGCUGCCAGUGAAGAAGUGAACAAGGAAAAUCUGGGCCAGGCAGGCAUCAAAAGAAAUGGUCUUGCGCUCAACCAGAAAGUCUGUAACCAUUUUAAGGGUA [G21A A24G A56G A64G A98G U127C],0.13
17,GUUAACGGUCAUAGGCCAUGAAAACUAGGAGCACCAUUUCGCUGCCUGUGAAGAAAUGAACAAAGAAAAUCUGGGCCAGGCAGGCAUCAAAAGAAAUAGUCUUGCGCUCAACCAGGCAGUCUGUAAUCAUUUUGAGGGUA [G21A A47U A116G A117C A134G],0.03
18,GUUAACGGUCAUAGGCCAUGAAAACUAGGAGCACCAUUUCGCUGCCAGUGUAGAAAUGAACAAAGAAAAUCUGGGCCAGGCAGGCAUCAAAAGAAAUAGUCUUGCGCUCAGCCAGAAAGUCUGUAAUCAUUUUAAGGGUA [G21A A51U A111G],0
19,GUUAACGGUCAUAGGCCAUGAAAACUAGGAGCACCAUUUCGCUGCCAGUGAAGAAGUGAACAAAGAAAAUCUGGGCCAGGCAGGCAUCAAAAGGAAUAGUCUUGCGCUCAACCAGAAAGUCUGUAAUCAUUUUAAGGGUA [G21A A56G A94G],1.42
20,GUUAACGGUCAUAGGCCAUGAAAACUAGGAGCACCAUUUCGCUGCCAGUGAAGAAAUGGACAAAGAAAAUCUGGGCCAGGCGGGCAUCAAAAGGAAUAGUCUUGCGCUCAACCAGAAAGUCUGUAAUCAUCUUAAGGGUA [G21A A59G A82G A94G U131C],0.54
